The record followed here is ChEMBL document CHEMBL4888484, “Replenishing the malaria drug discovery pipeline: Screening and hit evaluation of the MMV Hit Generation Library 1 (HGL1) against asexual blood stage Plasmodium falciparum ,using a nano luciferase reporter read-out” (2022).

About 540 (0.36%) of roughly 150,000 compounds showed an effect of 50% or more. This is one part of the list.

The experiment concerns Plasmodium falciparum. In words: Primary screen in NF54 nanoGlo assay, in single point, at 2uM, 72h; a lower Z score goes with more inhibition. The class given is functional, Erythrocyte. As to conditions: timepoint 72 hour.
A word on the % Inhibition: it is the drop in the measured response relative to a control, in per cent. Turning to `CCN1CCN(C[C@]2(O)CCCN(Cc3cc(OC)ccc3F)C2=O)CC1`, the “% Inhibition” value is on record as -7% and the Z score worked out at 1.07.
The like results for `Cc1nc(Cc2ccc(N(C)C)cc2)n(CCO)n1` were, in that order, 3% and -0.53.
For `O=C(NCC(=O)N1CCC[C@@H]1Cc1ccc(F)cc1)c1ccccc1`, in that order: -6% and 1.11.
For `Cn1ccc(NC(=O)Cn2cc(C(F)(F)F)ccc2=O)n1`, in that order: 8% and -1.57.
For the molecule `Cn1cc(CN2CCCC[C@H]2c2nccn2C)c(-c2ccc3c(c2)OCCO3)n1`, the “% Inhibition” value is given as -6% and the Z score was 0.9.
As for `O=C(NC1Cc2cccc(O)c2C1)C1CC2CCC1O2` (stereo not given), the “% Inhibition” value was -8% and the Z score amounted to 1.6.
`Cc1cc(NC(=O)CN2CCC[C@H](C(=O)c3cccc(OC(C)C)c3)C2)no1`: the “% Inhibition” value is -2% and the Z score is listed as 0.41.
For `CCOC(=O)[C@H](C)N(C)S(=O)(=O)c1cnn(C)c1`, in that order: -6% and 1.21.
For the molecule `Cc1ncnc(NCCCN(C)C2CCCC2)c1C`, the “% Inhibition” value is -10% and the Z score was 1.04.
For `CCS(=O)(=O)c1cc(F)ccc1NC(=O)N[C@H](CO)CCOC`, in that order: -8% and 1.46.
For `CCN1CCC[C@@H]1CNC(=O)c1n[nH]c2c1CCCC2`, in that order: -9% and 1.32.
Take `CCC[C@@]1(C2CCN(C(=O)c3csc4c3CCCC4)CC2)NC(=O)N(CCc2ccccn2)C1=O`: the “% Inhibition” value was -10% and the Z score amounted to 1.29.
The like results for `C[C@H](NC(=O)c1noc2c1COCC2)c1csc(C(F)(F)F)c1` were, in that order, -9% and 1.2.
Regarding `CC(C)N1CCC(=O)N(Cc2ccc(CN3C(=O)CCN(C(C)C)C3=O)cc2)C1=O`, the “% Inhibition” value is listed as -10% and the Z score is on record as 1.52.
The like results for `O=c1ccc(C(F)(F)F)nn1Cc1ccc(-n2cccn2)cc1` were, in that order, -9% and 1.13.
For `CC(C)c1nc(C#N)c(N2CCN(c3ccccc3)CC2)o1`, in that order: 4% and -0.52.
As to `CCOc1c(CNC(C)(C)CO)cc(Br)cc1OC`, the “% Inhibition” value is -10% and the Z score stood at 1.15.
The like results for `CN1C(=O)COC(C(N)=O)C1c1ccccc1` (stereo not given) were, in that order, -15% and 1.98.
Take `CN1CCN(CC(=O)N2CCC(OCc3ccccn3)CC2)C1=O`: the “% Inhibition” value is 7% and the Z score is recorded as -1.31.
The like results for `CCOC(CN1CC(C)(C)C1(C)C)OCC` were, in that order, 3% and -0.3.
With `CN(CCCNC(=O)c1cnc(-c2ccccn2)nc1O)c1ccccc1`, the “% Inhibition” value is listed as -8% and the Z score amounted to 1.54.
The like results for `CCS(=O)(=O)N[C@@H](COC)c1ccccn1` were, in that order, -11% and 1.93.
For `CN(C)c1cccc(-c2ccc3c(cnn3C)c2)c1`, in that order: -6% and 0.97.
For `COc1cc(=O)[nH]cc1C(=O)N1CCCC[C@H]1c1ccccc1`, in that order: 3% and -0.43.
With `Cc1cc(S(=O)(=O)N(C)CCNc2ccccn2)c(C)o1`, the “% Inhibition” value was -1% and the Z score is 0.09.
